The whole screen tested about 48,000 compounds, of which about 550 (1.1%) were called active. Not shown: some 4% with an inconclusive outcome. Cut-off read from the data, not from the text of the source: active = potency below about 15 µM; inconclusive = mostly about 16 µM to 33 µM; inactive = weaker than that. Some of the results follow.
Potency is the fitted concentration of half-maximal effect.

The assay has as its target Lysosomal acid glucosylceramidase (Homo sapiens) (UniProt P04062). Put plainly: Glucocerebrosidase.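 Note: the screen sought inhibitors.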 Conditions: purified enzyme, resorufin glucoside fluorescence (screen aimed at inhibitors), 20 min; series mostly up to 77 µM. The method, boiled down: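 Compounds titrated against 0.2 nM normal enzyme, 30 uM resorufin beta-D-glucopyranoside substrate, citrate/phosphate buffer with taurocholate and tween-20, pH 5.9. Reaction ran 20 min at room temperature; fluorescence (Ex 548/Em 600) gave AC50.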
UniProt P04062, sequence (P04062 whole entry, looked up): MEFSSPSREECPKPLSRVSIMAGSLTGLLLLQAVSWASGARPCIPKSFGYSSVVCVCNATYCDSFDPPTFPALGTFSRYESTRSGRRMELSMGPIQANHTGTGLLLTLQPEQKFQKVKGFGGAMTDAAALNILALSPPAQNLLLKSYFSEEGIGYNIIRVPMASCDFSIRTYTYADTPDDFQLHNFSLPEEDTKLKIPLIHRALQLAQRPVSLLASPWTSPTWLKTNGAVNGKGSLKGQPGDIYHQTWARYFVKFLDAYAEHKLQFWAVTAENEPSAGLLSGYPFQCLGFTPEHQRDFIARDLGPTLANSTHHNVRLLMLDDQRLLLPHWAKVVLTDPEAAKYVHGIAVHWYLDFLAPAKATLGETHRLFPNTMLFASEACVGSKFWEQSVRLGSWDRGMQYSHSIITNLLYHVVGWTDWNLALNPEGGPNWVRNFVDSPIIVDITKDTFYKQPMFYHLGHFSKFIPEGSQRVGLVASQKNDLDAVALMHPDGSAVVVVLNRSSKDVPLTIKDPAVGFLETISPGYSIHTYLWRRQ
With `COc1ccc(S(=O)(=O)n2nc(OC(=O)c3ccccc3)cc2N)cc1`, the Potency was inactive: > 76.9 µM.

Take `COc1cc2nc(NC(=O)c3ccccc3)[nH]c(=O)c2cc1OC`: the Potency is inactive: > 76.9 µM.

Consider `Cc1csc(NC(=O)c2c(O)c3c(n(CC(C)C)c2=O)CCCC3)n1`, for which the Potency is inactive: > 76.9 µM.

As to `O=C(O)Cn1nc(-c2ccc(F)cc2)oc1=O`, the Potency was inactive: > 76.9 µM.

For `NC(=O)C1CCN(C(c2ccccc2Cl)c2nnnn2CC2CCCO2)CC1` (configuration not stated), the Potency was inactive: > 76.9 µM.

For `COC(=O)C1=C(C)n2nnnc2NC1c1cc2ccccc2o1` (configuration not stated), the Potency was inactive: > 76.9 µM.

With `O=C(NC1CCN(C(=O)NC2CCCCC2)CC1)c1ccco1`, the Potency is inactive: > 76.9 µM.

On to `O=C(NCCOc1ccccc1)c1ccc2c(c1)OCO2`, for which the Potency is inactive: > 76.9 µM.

As for `CCOCCCn1c(=S)[nH]c2cc(C(=O)N3CCOCC3)ccc2c1=O`, the Potency is inactive: > 76.9 µM.

Consider `N#Cc1nc(Cc2ccccc2)oc1N1CCN(c2cccc(Cl)c2)CC1`, for which the Potency was inactive: > 76.9 µM.

In the case of `CC(CCc1ccccc1)NC(=O)C1CCN(S(=O)(=O)c2cnc[nH]2)CC1` (configuration not stated), the Potency was inactive: > 76.9 µM.

`O=C(Nc1ccc2nsnc2c1)c1ccc2c(c1)OCO2`: the Potency is inactive: > 76.9 µM.

With `COC(=O)Nc1nnc(CCc2ccccc2)s1`, the Potency is inactive: > 76.9 µM.

For `CC12CC(NC(=O)N1c1cccc(C(=O)Nc3ncn[nH]3)c1)c1ccccc1O2` (configuration not stated), the Potency was inactive: > 76.9 µM.

Take `CCCCOc1ccc(NC(=O)CSCC(=O)OCC)cc1`: the Potency was inactive: > 76.9 µM.

Regarding `CC1Oc2ccccc2N(Cc2ccccc2Cl)C1=O` (configuration not stated), the Potency is inactive: > 76.9 µM.

As to `Cc1ccc(-c2ccc(CCC(=O)O)n2NC(=O)c2cccs2)cc1`, the Potency is inactive: > 76.9 µM.

`c1ccc(-c2nnc(-c3ccccn3)nn2)nc1`: the Potency is inactive: > 76.9 µM.

For the molecule `Nn1c(CSc2nc3ccccc3o2)nnc1CSc1nc2ccccc2o1`, the Potency is inactive: > 76.9 µM.

On to `CCn1nnnc1SCC(=O)Nc1nc(-c2cccs2)cs1`, for which the Potency was inactive: > 76.9 µM.

For the molecule `COC(=O)c1cc(Br)ccc1OC(=O)c1cccnc1`, the Potency was inactive: > 76.9 µM.

As for `CCOC(=O)c1c(O)c2c(n(Cc3ccco3)c1=O)CCCC2`, the Potency was inactive: > 76.9 µM.

As for `C=CCc1cccc2cc(C(=O)N3CCN(C(=O)OCC)CC3)c(=O)oc12`, the Potency was inactive: > 76.9 µM.

Consider `CCOCCCNC(=O)N[C@@H](C)C(=O)OC`, for which the Potency is inactive: > 76.9 µM.

Consider `CC1(C)NC(=O)N(CC(O)CN2CCCCC2)C1=O` (configuration not stated), for which the Potency result was “inactive”.

Turning to `Cc1occc1-c1nnc(SCC(=O)NC(=O)NC(C)C)n1N`, the Potency was inactive: > 76.9 µM.

`O=C(CN(Cc1ccco1)C(=O)CNS(=O)(=O)c1ccccc1)NCc1ccc(F)cc1`: the Potency was inactive: > 76.9 µM.

Values taken from PubChem BioAssay AID360 (National Center for Advancing Translational Sciences (NCATS), 2006).
